Source: patent US20240239885A1, “ANTIBODY CONJUGATE COMPRISING ANTI-P-CADHERIN ANTIBODY AND USES THEREOF” (WUXI BIOLOGICS IRELAND LIMITED, priority 2021, published 2024)

Experiments:
[1] = test system: MDA-MB-453 cells; test: Cytotoxicity assay of ADC (Cell Titer Glo) on MDA-MB-453; format: cell-based, human
[2] = test system: NCI-H1650 cells; test: Antibody mediated internalization assay (HCS) on NCI-H1650; format: cell-based, human
Description: Operetta CLS (PerkinElmer) is a high content imaging and analysis system that can collect and analyze images of samples with high speed and sensitivity. One day before the assay day, Poly-D-Lysine (PDL) was diluted to 8 μg/mL in DPBS (Hyclone, #SH30028.03) and added 100 μL/well into 96-well clear bottom black plates (Greinier, #655090). The PDL-coated plates were then incubated at 37° C. for 1 hour before discarding the supernatant. HCC-1954 (ATCC, CRL-2338) cells or NCI-H1650 (ATCC, CRL-5883) cells were plated at 18000 cells per well into the PDL-coated plates in 100 μL RPMI1640 complete medium (Gibco, #22400-089) containing 10% FBS (Hyclone, #SH30084.03). On Day 1, supernatants in the plates were discarded and antibodies serially diluted in 1% BSA/1×PBS (Ca+/Mg+) were added at 100 µL/well and incubated at 4° C. for 2 hours. A non-related hlgG1 antibody was used as an isotype control. […]
Images were collected and analyzed by operetta CLS (PerkinElmer). The amount of internalized anti-P-cadherin antibody was assessed by measuring the mean fluorescence (MFI) per cell, wells containing no antibody or secondary antibody only were used to establish background fluorescence. […]

[3] = test system: NCI-H1650 cells; test: Cytotoxicity assay of ADC (Cell Titer Glo) on NCI-H1650; format: cell-based, human; details: NCI-H1650, 5 days
[4] = test system: HCC70 breast tumor; test: Xenografted HCC70 breast tumor model, Study II; format: in vivo, SCID-17B female mice; details: for TGI (%), Day 36: intravenous, vs Isotype control; for TGI (%), Day 36 / Tumor free, n/total: single dose; for Tumor free, n/total: Day 36
Description: Ti is the average tumor volume of a treatment group on a given day. TO is the average tumor volume of the treatment group on the first day of treatment. Vi is the average tumor volume of the vehicle control group on the same day with Ti and V0 is the average tumor volume of the vehicle group on the first day of treatment. Relative change of bodyweight change (RCBW) was calculated with the formula [(BWt−BW0)/BW0]×100%, BW0 is the average bodyweight at day0, BWt is the average bodyweight at a measurement day. […] Data at day 34 were analyzed using Ordinary one-way ANOVA Tukey's multiple comparisons test with Graphpad Prism 6.0 and p<0.05 was considered as statistically significant.
WBP3195-p1-ADC in efficacy study was tested in HCC70 breast tumor model in SCID-17B female mice. One hundred female SCID-17B mice (Beijing Vital River Lab Animal Technology Co. Ltd) of 37-38 weeks-old were used in the second study. HCC70 cells were maintained in vitro as a monolayer culture in RIPM1640 medium supplemented with 10% fetal bovine serum and 1% Penicillin-Sreptomycin at 37° C. in an atmosphere of 5% CO2 in air. The tumor cells were routinely sub-cultured twice a week with 0.25% trypsin-EDTA treatment. The cells growing in an exponential growth phase were harvested and counted for tumor inoculation. The harvested cells were re-suspended in PBS at a density of 1.0×10^8 cells/mL then added the equivalent matrigel (final 1.0×10^7 cells/200 μL/mouse) with viability >90% and subcutaneously implanted into the right front flank of animals.
When the average tumor volume reached approximately 242 mm^3 at day 10 post inoculation, animals were randomly grouped into 4 groups and each group contained 7 mice. […] The day of intravenous injection was considered as day 0. For all tumor studies, mice were weighed and tumor growth was measured twice a week using calipers.

[5] = test system: H1 Hela; test: Non-specific binding (FACS) on H1 Hela; parameters: species or system human; details: 10 μg/mL
Description: Human cell lines were seeded in 96-well plates (BD) at a density of 1×10^5 cells/well. 10 μg/mL antibody samples were added to cells and incubated for 1 h at 4° C. After washing, the cells were resuspended and incubated with PE-conjugated goat anti-human IgG Fc antibody (Jackson) for 30 min. After washing and resuspending, mean fluorescence intensity (MFI) was measured by flow cytometry (BD Canto II) and analyzed by FlowJo.

B1: W3195-1.53.1-p1-uIgG1L-MMAE (conjugate)
heavy: QVQLQESGPGLVKPSETLSLTCTVSGGSVISDNYYWTWVRQPPGKGLEFIGYIYYRGSTNYNPSLKNRVIISIDTSRNQFSLDLNSVTAADTAVYYCARDRRTGNSLPFDNWGQGTLVTVSSASTKGPSVFPLAPSSKSTSGGTAALGCLVKDYFPEPVTVSWNSGALTSGVHTFPAVLQSSGLYSLSSVVTVPSSSLGTQTYICNVNHKPSNTKVDKRV[human IgG1 Fc not written out]
light: SYELTQPPSVSVSPGQTAQITCSGDKLGDKFASWYQQKSGQSPVVVIYQDNKRPSGFPERFSGSNSGNTATLTISGTQAMDEADYYCQAWDSSIVVFGGGTKLTVLGQPKAAPSVTLFPPSSEELQANKATLVCLISDFYPGAVTVAWKADSSPVKAGVETTTPSKQSNNKYAASSYLSLTPEQWKSHRSYSCQVTHEGSTVEKTVAPTECS
IC50 ([1]; MDA-MB-453 (P-cadherin low expressing), 5 days, read-out: IC50 (nM), ADC toxicity): > 10 nM | Max Inh % ([1]; MDA-MB-453, 5 days): 4.0% | Top MFI, internalization in HCS assay [2]: 94928 | Max Inh % [3]: 80% | TGI (%), Day 36 ([4]; 0.5 mg/kg): 62.06% | Tumor free, n/total ([4]; 0.5 mg/kg): 0/6 | tumor free animals observed ([4]; 2.5 mg/kg, day36 post treatment): 5 | TGI (%), Day 36 ([4]; 2.5 mg/kg): 122.67% | Tumor free, n/total ([4]; 2.5 mg/kg): 5/6 | MFI, non-specific binding [5]: 27
